Test results: article PMC4336329 (PLoS ONE, 2015)
Hit rate of the full screen: of about 310,000 compounds, about 2,200 (0.71%) showed an effect of 50% or more. The effect is printed as a negative number. The list shows a part of the results.

Each compound was assayed against human ether-à-go-go-related gene (hERG) potassium channel (human, UniProt Q12809) (assay: primary screen, population patch clamp on CHO cells stably expressing hERG).
Sequence of human ether-à-go-go-related gene (hERG) potassium channel (Q12809 whole entry, looked up): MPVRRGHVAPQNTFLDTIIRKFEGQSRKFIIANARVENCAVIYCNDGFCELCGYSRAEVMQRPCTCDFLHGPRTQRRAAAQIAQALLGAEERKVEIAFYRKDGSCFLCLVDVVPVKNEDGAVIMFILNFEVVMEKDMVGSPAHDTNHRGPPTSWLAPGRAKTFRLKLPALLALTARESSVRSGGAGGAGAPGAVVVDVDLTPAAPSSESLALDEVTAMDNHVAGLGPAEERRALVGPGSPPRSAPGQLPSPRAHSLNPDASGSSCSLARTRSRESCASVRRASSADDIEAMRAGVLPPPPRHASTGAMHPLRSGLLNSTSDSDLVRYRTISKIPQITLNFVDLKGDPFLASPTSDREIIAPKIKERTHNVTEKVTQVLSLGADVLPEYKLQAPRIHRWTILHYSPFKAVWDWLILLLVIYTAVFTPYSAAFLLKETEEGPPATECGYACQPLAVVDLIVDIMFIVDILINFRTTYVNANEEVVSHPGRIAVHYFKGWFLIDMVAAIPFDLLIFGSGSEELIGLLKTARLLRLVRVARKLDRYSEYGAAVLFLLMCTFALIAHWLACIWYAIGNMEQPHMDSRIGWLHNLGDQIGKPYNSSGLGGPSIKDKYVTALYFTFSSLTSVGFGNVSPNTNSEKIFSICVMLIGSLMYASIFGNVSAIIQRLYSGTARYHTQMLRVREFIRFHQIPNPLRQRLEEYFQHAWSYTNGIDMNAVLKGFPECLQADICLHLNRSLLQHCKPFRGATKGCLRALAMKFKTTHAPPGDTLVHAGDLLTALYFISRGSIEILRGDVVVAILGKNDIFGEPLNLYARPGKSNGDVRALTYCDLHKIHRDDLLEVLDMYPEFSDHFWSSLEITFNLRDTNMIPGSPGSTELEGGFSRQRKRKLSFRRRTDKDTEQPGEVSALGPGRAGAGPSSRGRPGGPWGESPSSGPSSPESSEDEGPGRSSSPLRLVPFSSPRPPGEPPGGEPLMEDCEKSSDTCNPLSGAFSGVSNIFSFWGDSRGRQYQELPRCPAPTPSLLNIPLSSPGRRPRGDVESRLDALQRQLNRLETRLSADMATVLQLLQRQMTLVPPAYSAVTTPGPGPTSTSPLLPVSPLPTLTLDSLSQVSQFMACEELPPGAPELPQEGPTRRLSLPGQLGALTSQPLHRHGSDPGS

Row | SMILES | hERG current change (%, negative = inhibition) at 1uM [%]
1 | S=c1nc(-c2ccc(Br)cc2)[nH]c2ccccc12 | 12.7
2 | COc1cc(C[C@@H](C)N)c(OC)cc1I.Cl | 1.41
3 | CCn1c(=O)c(=O)[nH]c2cc(C(=O)NC3CCCC3)ccc21 | 16.3
4 | O=S(=O)(Nc1ccc2oc(-c3ccccc3)nc2c1)c1ccccc1 | -4.08
5 | COc1ccc(-c2c(C)nn3c(N4CCC(C(=O)N5CCCCC5)CC4)cc(C)nc23)cc1OC | 11.5
6 | CC1CCC(NC(=O)COC(=O)CCC(=O)c2ccc(Cl)s2)CC1 (stereo not shown) | 15.4
7 | CC1(C)CC(N2CCCC2)=CC(=[N+]2CCCCCC2)C1.[I-] | 7.55
8 | O=C(Nc1c(F)cc(F)cc1Br)c1cc(-c2ccco2)on1 | 5.89
9 | O=C(NCCCN1CCOCC1)c1ccccc1.O=C(O)C(=O)O | 18
10 | O=C(CNc1cccc(S(=O)(=O)N2CCOCC2)c1)Nc1cccc(Br)c1 | -2.34
11 | Cc1nnc(NC(=O)c2ccc(C)c(S(=O)(=O)N3CCOCC3)c2)s1 | 11.7
12 | COc1ccc(Cl)cc1NC(=S)N1CCCC1 | 10.1
13 | COc1ccc(NC(=O)CN2C(=O)NC(c3ccccc3)(c3ccccc3)C2=O)cc1OC | 3.77
14 | NC(=O)[C@@H]1CCCN1Cc1c(C(=O)N2CCN(C3CCCCC3)CC2)nc2ccccn12 | 11
15 | Cc1cc(C)c(S(=O)(=O)NCc2cccnc2)c(C)c1 | 6.49
16 | CCOc1ccc(/C(O)=C2/C(=O)C(=O)N(CC3CCCO3)C2c2ccco2)cc1 (stereo not shown) | 14.8
17 | Cc1cc(NC(=O)CCC(=O)N(CC(=O)NC2CCCC2)c2ccc(F)cc2)no1 | 6.11
18 | COC(=O)CCCNC(=O)CN1CC(c2ccccc2)CC1=O (stereo not shown) | 4.06
19 | COCCNC(=O)c1cc(OC)c(OC)cc1[N+](=O)[O-] | 10.4
20 | CCCN(CCC)Cc1c(C(=O)N/N=C/c2ccc(Br)cc2)nnn1-c1nonc1N | 8.16
21 | COc1ccc(CCN(C)C(=O)CN2C(=O)NC3(CCCCC3C)C2=O)cc1OC (stereo not shown) | 17.5
22 | CCOc1ccc(NC(=O)c2c(C)nn(Cc3ccccc3)c2Cl)cc1 | 11
23 | O=C1COc2ccc(C(=O)COC(=O)CNC(=O)c3ccco3)cc2N1 | -2.94

Row | SMILES | hERG current change (%, negative = inhibition) at 1uM [%]
24 | O=C(Cc1ccc(F)cc1)Nc1ccc(S(=O)(=O)N2CCCC2)cc1 | 16.3
25 | CCCCCN1C=CC=C/C1=C\C=C(C#N)C#N | -28.2
26 | CC(C)(C)CC(=O)NCc1cccs1 | -1.18
27 | COc1ccccc1OCC(=O)NCc1cccs1 | 21.2
28 | Cn1c(=O)oc2cc(S(=O)(=O)N3CCN(c4cccc(Cl)c4)CC3)ccc21 | 9.55
29 | COc1cc(Cl)cc(C2NC(=O)NC(C)=C2C(=O)NCc2ccccc2)c1O (stereo not shown) | 4.02
30 | COc1ccc(S(=O)(=O)N2CCOc3ccccc32)cc1 | 14.8
31 | COC(=O)CSc1nc(C)cc(C)c1C#N | 20.4
32 | O=C(Nc1nc(-c2ccc3c(c2)OCO3)cs1)C1COc2ccccc2O1 (stereo not shown) | 11.6
33 | CCSc1nnc(NC(=O)CCNS(=O)(=O)c2ccccc2F)s1 | 8.1
34 | CCOC(=O)c1ccc(NC(=S)NCc2ccc(F)cc2)cc1 | 11.5
35 | Cc1c(NS(=O)(=O)c2cccc(C(=O)NCc3ccncc3)c2)c(=O)n(-c2ccccc2)n1C | 10.9
36 | CSCCC(NC(=O)COc1ccccc1)C(=O)N(C)CC(=O)Nc1ccc(C)cc1 (stereo not shown) | 4.33
37 | O=C(CSc1nncc(=O)[nH]1)NCc1ccccc1 | 7.3
38 | C/C(=N\NC(=S)Nc1cccc(C)c1)c1ccco1 | 7.46
39 | CCc1cc(C(=O)Cc2ccc(F)cc2)c(O)cc1O | 9.49
40 | COc1cccc(Cn2cc(C(=O)NCCN(C)C)nn2)c1 | 10.4
41 | CC(C)CCNC(=O)c1ccc(OC2CCN(S(=O)(=O)N(C)C)CC2)cc1 | 15.9
42 | CC(C)(C)C(=O)OCc1nc(-c2ccc(Cl)cc2)cs1 | 9.52
43 | C=CCn1c(SCC(=O)N2CCOCC2)nc2scc(-c3ccco3)c2c1=O | -30.6
44 | CCOC(=O)CC(NS(=O)(=O)c1ccc(OC)c(OC)c1)c1cccc([N+](=O)[O-])c1 (stereo not shown) | 2.91
45 | O=C(Cc1ccccc1)Nc1cc([N+](=O)[O-])ccc1N1CCOCC1 | -8.2
46 | COc1ccc(C(O)c2nccn2C)cc1 (stereo not shown) | 12.3

Row | SMILES | hERG current change (%, negative = inhibition) at 1uM [%]
47 | COc1ccc(COC(=O)C2=C(C)NC(=O)NC2c2ccccc2F)cc1 (stereo not shown) | 18.6
48 | O=C(CN(C(=O)c1csnn1)c1ccc(F)cc1)NCc1ccc(F)cc1 | 3.44
49 | COc1cccc(-c2nc(CS(=O)(=O)CC(=O)NCCc3cc(OC)ccc3OC)c(C)o2)c1 | 11.4
50 | Cc1ccc(C(=O)Nc2ccon2)cc1S(=O)(=O)N1CCOCC1 | -4.23
51 | CC(C)N(Cc1nc(-c2ccccc2)no1)C(=O)C(C)(C)C | 2.17
52 | COCCN=C1NN=C(c2ccc(C)c([N+](=O)[O-])c2)CS1 | 9.31
53 | COc1ccc(-c2[nH]ncc2/C=N\NS(=O)(=O)c2ccc(Cl)cc2)cc1 | 7.39
54 | O=C(/C=C/NCc1cccnc1)c1ccc(Br)cc1 | 8.42
55 | COc1ccc(N2C(=O)NC(NS(=O)(=O)c3ccccc3)(C(F)(F)F)C2=O)cc1 (stereo not shown) | 0.554
56 | COc1cc2cc(C(=O)N/N=C/c3ccccc3Cl)[nH]c2cc1OC | 8.39
57 | Cc1ccc(C)c(N2CCN(S(=O)(=O)c3ccc4c(c3)NC(=O)CC(=O)N4)CC2)c1 | 8.13
58 | CC(C)n1cc(NC(=O)C2CC(c3cccc(Br)c3)=NO2)cn1 (stereo not shown) | 8.93
59 | Cc1ccc(-n2c(C)cc(C(=O)CN3CCCCC3)c2C)cc1 | -5.25
60 | CC(OC(=O)C1CC(=O)N(Cc2ccccc2)C1)C(=O)Nc1ccc(F)cc1Cl (stereo not shown) | -4.14
61 | COc1ccc(NC(=O)/C=N/O)cc1 | 16.2
62 | O=C(Nc1cccc([N+](=O)[O-])c1)c1ccc2ccccc2c1O | 14
63 | COc1ccc(NC(=O)c2c(-c3ccccc3Cl)noc2C)c(OC)c1 | 12.4
64 | CN(C)S(=O)(=O)c1cccc(NC(=O)COc2cccc(C#N)c2)c1 | -2.24
65 | Cc1ccc(N2CCN(CCc3nc4cc(NS(C)(=O)=O)ccc4n3C)CC2)cc1 | -35.3
66 | O=C(O)CN1C(=O)C2(OCCCO2)c2ccccc21 | 12.1
67 | CCCCNC(=O)c1ccccc1SCc1c(C)noc1C | 1.96
68 | CCc1cc(C(=O)N2CCOCC2)c(NC2=NS(=O)(=O)c3ccccc32)s1 | -1.74
69 | Cc1cc(-c2nc3ccccc3o2)c2ccccc2n1 | 1.65

Row | SMILES | hERG current change (%, negative = inhibition) at 1uM [%]
70 | CN(CC(=O)Nc1ccc2c(c1)OCO2)S(=O)(=O)c1ccc(F)cc1 | 9.89
71 | O=C(Cc1cccs1)Nc1cccc(-c2nc3ccccc3o2)c1 | 11.4
72 | CCOC(=O)CNC(=O)OC1CCN2Cc3ccccc3N=C12.Cl (stereo not shown) | 11.6
73 | Cc1ccccc1CN1CCN(S(C)(=O)=O)CC1 | -2.32
74 | CCCCc1nnc(NC(=O)CN2C(=O)NC3(CCCCC3)C2=O)s1 | 12
75 | CCCCC/C(=N\NC(=O)Nc1ccccc1)c1ccccc1 | 2.06
76 | CCOc1cccc(CN2CCN(CCCc3ccccc3)C(CCO)C2)c1O (stereo not shown) | -54.7
77 | CCC(C)[C@H](NC(=O)c1cc2cc(Cl)ccc2n1C)C(=O)N1CCC(C(=O)O)CC1 (stereo partly shown) | 16.4
78 | CC1CCC(C#N)(N(C)C(=O)CSc2nnc(C3CC3)n2C2CC2)CC1 (stereo not shown) | 3.75
79 | CCOc1ccc(C(CC(=O)O)NC(=O)C23CC4CC(CC(C4)C2)C3)cc1 (stereo not shown) | 2.99
80 | COCC(C)n1c(COc2ccccc2F)nnc1SCC(=O)Nc1oc(C)c2c(C)n[nH]c(=O)c12 (stereo not shown) | 11
81 | CC1CCc2nc3ccc(S(=O)(=O)N4CCC(C(=O)NCc5ccccc5Cl)CC4)cc3c(C(=O)O)c2C1 (stereo not shown) | 10.3
82 | COc1cc(/C=N/NC(N)=O)cc([N+](=O)[O-])c1O | 6.78
83 | COc1ccc(CC(=O)NNC(=O)c2cc(C)[nH]n2)cc1 | 20.5
84 | O=C(O)c1ccccc1C(=O)NCC(O)c1ccccc1 (stereo not shown) | -0.637
85 | Cc1ccc(S(=O)(=O)Cc2nc3ccccc3c(=O)[nH]2)cc1 | -5.44
86 | C=CCN1C(=O)c2ccc(C(=O)N(C)CC(=O)Nc3ccc(OCC)c(OCC)c3)cc2C1=O | -11
87 | O=C(CN1C(=O)COc2ccccc21)NCc1ccccn1 | -5.78
88 | COc1ccccc1NC(C)=O | 4.87
89 | CC(=O)Nc1ccc(OCC(O)Cn2ccnc2)cc1 (stereo not shown) | 25.7
90 | CC1CCCN(c2nc3c(c(=O)[nH]c(=O)n3C)n2CCSc2nc3ccccc3o2)C1 (stereo not shown) | -0.325
91 | Cc1ccc([N+](=O)[O-])cc1NC(=O)C(C)N1CCCCC1 (stereo not shown) | 18.1
